# Data published in US20250230210A1 (PARTNER THERAPEUTICS, published 2025).
# T1: GM-CSF cognate receptor on TF-1 cells (human, UniProt P15509 23-400; P32927 17-897)
# T1 sequence (looked up) 1: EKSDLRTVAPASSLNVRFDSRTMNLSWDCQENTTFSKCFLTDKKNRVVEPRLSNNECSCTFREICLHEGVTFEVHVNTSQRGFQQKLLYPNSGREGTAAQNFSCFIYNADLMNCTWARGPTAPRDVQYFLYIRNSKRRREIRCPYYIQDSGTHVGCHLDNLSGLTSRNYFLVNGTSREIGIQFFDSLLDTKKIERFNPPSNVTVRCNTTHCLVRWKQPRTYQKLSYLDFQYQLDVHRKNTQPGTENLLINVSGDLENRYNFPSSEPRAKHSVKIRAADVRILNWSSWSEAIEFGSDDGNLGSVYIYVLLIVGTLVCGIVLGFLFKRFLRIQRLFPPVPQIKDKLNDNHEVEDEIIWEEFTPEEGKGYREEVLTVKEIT
# T1 sequence (looked up) 2: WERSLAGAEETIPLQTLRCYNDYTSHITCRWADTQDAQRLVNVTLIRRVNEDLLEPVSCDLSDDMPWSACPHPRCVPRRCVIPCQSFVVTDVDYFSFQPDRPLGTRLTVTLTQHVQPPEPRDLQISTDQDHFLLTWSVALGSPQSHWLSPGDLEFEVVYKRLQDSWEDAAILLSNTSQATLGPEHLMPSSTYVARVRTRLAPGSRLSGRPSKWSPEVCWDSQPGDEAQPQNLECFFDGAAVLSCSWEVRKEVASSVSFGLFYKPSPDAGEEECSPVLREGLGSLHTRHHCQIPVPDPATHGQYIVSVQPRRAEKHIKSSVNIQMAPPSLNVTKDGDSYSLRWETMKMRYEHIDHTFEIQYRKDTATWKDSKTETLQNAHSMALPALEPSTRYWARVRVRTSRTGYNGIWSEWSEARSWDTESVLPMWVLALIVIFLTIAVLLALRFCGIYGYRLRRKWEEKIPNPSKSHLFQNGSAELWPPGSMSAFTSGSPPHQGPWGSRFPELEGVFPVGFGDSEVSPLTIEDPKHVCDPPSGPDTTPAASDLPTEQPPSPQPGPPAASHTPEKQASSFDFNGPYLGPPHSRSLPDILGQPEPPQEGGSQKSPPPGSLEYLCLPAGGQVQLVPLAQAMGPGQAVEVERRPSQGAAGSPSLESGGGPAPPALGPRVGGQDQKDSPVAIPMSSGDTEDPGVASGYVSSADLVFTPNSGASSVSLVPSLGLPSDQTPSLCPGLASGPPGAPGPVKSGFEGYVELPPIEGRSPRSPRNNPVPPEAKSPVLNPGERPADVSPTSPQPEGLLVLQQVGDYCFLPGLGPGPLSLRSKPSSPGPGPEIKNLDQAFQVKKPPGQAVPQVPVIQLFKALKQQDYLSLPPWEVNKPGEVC
# B1: LEUKINE (sargramostim) (ligand)
# chain: not shown
# Biological target: T1, GM-CSF cognate receptor on TF-1 cells
# Test: cell-based or functional assay
binder,measurement,value
B1,"EC50 (read off the curve), TF-1 cell proliferation without human serum albumin",~4 pM
